86 sequences from the supplement of paper PMC3334620 can be followed below.

Whole data set: some 33,000 sequences, median “E-score (-0.5 to 0.5)” near -0.043, cut for the highest 2% near 0.37. The list shows a part of the results.

The assay deals with T1, Upc2 (UniProt Q12151).
T1 sequence: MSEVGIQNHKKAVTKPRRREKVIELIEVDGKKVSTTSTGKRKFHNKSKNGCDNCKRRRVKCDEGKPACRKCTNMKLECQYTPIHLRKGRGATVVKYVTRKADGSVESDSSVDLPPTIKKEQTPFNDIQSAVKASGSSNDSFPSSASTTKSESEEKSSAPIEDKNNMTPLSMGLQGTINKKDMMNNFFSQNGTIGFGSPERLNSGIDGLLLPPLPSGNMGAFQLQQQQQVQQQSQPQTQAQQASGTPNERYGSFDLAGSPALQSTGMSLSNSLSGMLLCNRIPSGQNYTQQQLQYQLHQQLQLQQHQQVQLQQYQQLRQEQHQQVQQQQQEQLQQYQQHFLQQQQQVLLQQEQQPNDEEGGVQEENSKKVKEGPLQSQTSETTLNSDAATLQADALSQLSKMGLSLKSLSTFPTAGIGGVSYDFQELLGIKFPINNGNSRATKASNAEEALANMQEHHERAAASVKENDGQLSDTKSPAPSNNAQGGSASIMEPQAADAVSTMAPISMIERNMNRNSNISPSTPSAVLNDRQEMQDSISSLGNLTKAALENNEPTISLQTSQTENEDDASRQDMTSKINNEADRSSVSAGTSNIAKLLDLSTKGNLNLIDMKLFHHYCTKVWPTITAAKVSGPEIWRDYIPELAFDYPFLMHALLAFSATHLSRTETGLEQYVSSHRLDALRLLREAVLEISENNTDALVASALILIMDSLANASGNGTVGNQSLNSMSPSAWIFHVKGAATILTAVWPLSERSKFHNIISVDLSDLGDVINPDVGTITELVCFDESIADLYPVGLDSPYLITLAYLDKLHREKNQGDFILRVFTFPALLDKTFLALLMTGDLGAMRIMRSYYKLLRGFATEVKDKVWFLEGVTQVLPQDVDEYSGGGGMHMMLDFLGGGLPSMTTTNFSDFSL
The assay is described as follows: PBM E-score (8-mer binding enrichment) (E-score (-0.5 to 0.5)); higher = stronger / more preferred TF binding; most listed sequences are background and not binding sites. Conditions: protein concentration: 200 nM; construct: GST-full length. The procedure:
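Universal 'all 10-mer' protein binding microarrays (Agilent AMADID 015681) probed with GST-tagged S. cerevisiae TFs (full-length or DBD) made by in vitro transcription/translation (PURExpress), about 100-200 nM. Bound TF was detected with fluorescent anti-GST. Each ungapped 8-mer (which stands for itself and its reverse complement) is scored by the PBM enrichment score (E-score), a modified Wilcoxon-Mann-Whitney statistic from -0.5 to +0.5, computed with the Universal PBM Analysis Suite. Scale: above 0.35 generally sequence-specific binding.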
As for CGCGAAGC, the “PBM E-score” value came to 0.085.
As for ACAGTCTC, the figure is -0.142; as for CGGACTAC, -0.113.
As for CAGCAGGC, the figure is -0.131; as for ACTTAGAG, -0.268.
As for GCACCTTA, the “PBM E-score” value was -0.177.
As for CAGGATTC, the “PBM E-score” value was -0.198.
Consider ACCTGACA, for which the “PBM E-score” value was -0.13.
As for GGGTGTAC, the figure is 0.212; as for ATTACTGG, -0.275.
As for ACTATGTG, the figure is -0.176; as for GTAGTCGA, 0.0599; as for AGTACATG, -0.132.
As for ACTTCCGG, the figure is -0.163.
For CAGCGGTC, the “PBM E-score” value was -0.215.
Regarding AAGGGAGC, the “PBM E-score” value was -0.164.
As for ACCTGAAA, the figure is -0.0264; as for AAGCATGT, 0.0121; as for GATAAAGC, -0.153.
As for CCCAGTCA, the figure is -0.266; as for CCGGATCC, -0.0139; as for TAAAAACA, 0.0575.
As for GCACAGCC, the figure is -0.0947; as for ACCCGATG, 0.0221; as for GCCGACAA, -0.0158.
As to ATCTTTGA, the “PBM E-score” value is 0.0486.
As for CTTCAGCA, the figure is -0.132; as for GTCTTGAA, 0.072.
Consider AAGACTAG, for which the “PBM E-score” value was -0.0706.
As for AAGCCCGT, the figure is 0.0277.
As for AATGGGAG, the figure is -0.179.
As for ACGTTGTG, the figure is 0.0616.
With CGGCGACA, the “PBM E-score” value is -0.134.
With GAGAAATC, the “PBM E-score” value worked out at 0.116.
As for ACGTCTCC, the figure is 0.0582; as for GACTCCGA, -0.241; as for CCAAACGC, 0.292.
TGGGTAAA: the “PBM E-score” value was 0.0235.
As for GGCATATA, the figure is 0.246; as for ACCGCTGA, 0.123.
As for AATAAACA, the figure is 0.0907; as for AGGTGGGA, -0.0594; as for GATCATGC, -0.128.
As for CTAGGGTA, the figure is -0.249; as for ACCTCGAC, -0.0283.
For GTTCCAAA, the “PBM E-score” value worked out at 0.117.
As for AATAGCAG, the figure is -0.28; as for AATCGGTG, -0.0843; as for ATTCTATC, 0.0248.
As for AGGACACC, the “PBM E-score” value was -0.124.
As for AAGGCAAG, the figure is -0.215.
With AGGAAGTC, the “PBM E-score” value is -0.232.
AAGTCAGT: the “PBM E-score” value was -0.0232.
Consider AGTAATGA, for which the “PBM E-score” value was -0.109.
With CGCGCCTC, the “PBM E-score” value was -0.00311.
As for GCCCGACC, the figure is -0.27; as for AGTAGATA, 0.167; as for CGAGGAGA, -0.0212.
As to ACAGCGCG, the “PBM E-score” value is -0.0289.
As for ATCTGTGC, the figure is -0.186; as for AGCCCACC, -0.116; as for GGGAAAAA, -0.0196.
As for ACATTGAT, the figure is 0.1; as for AGTTGCCC, -0.2; as for CGTCACGC, -0.00845.
As for AAAACAAA, the figure is 0.117.
In the case of GCATTTAC, the “PBM E-score” value is -0.0255.
As for AATAGTTG, the “PBM E-score” value was -0.125.
As for CCCGATCC, the figure is -0.258.
As for CAGAGGTC, the figure is -0.179; as for GAGGGCGA, -0.218; as for CTGATTCC, -0.277.
As for AAGCACGA, the “PBM E-score” value amounted to 0.0392.
For the sequence CACGCCAC, the “PBM E-score” value is -0.204.
As for CGGATTCC, the figure is -0.0494; as for AGGTAACC, 0.0804.
As for ACACCAAA, the figure is 0.133; as for GCTGGAAC, 0.0479; as for GCACGTGC, 0.00298.
As for AAAATCGA, the figure is -0.118.
GCGTCTGA: the “PBM E-score” value was -0.0194.
As for AAAATCCG, the figure is -0.0367; as for ATACTATA, 0.064.
As for AACGATAT, the figure is 0.39; as for CGTAAAAG, 0.405.
Turning to CGATGCGC, the “PBM E-score” value came out at 0.128.
